# Experimental data reported in the supplement of paper PMC8728848.
# The other results are listed elsewhere or left out.
# B1: E-Selectin (Homo sapiens), P16581 (protein)
# chain: MIASQFLSALTLVLLIKESGAWSYNTSTEAMTYDEASAYCQQRYTHLVAIQNKEEIEYLNSILSYSPSYYWIGIRKVNNVWVWVGTQKPLTEEAKNWAPGEPNNRQKDEDCVEIYIKREKDVGMWNDERCSKKKLALCYTAACTNTSCSGHGECVETINNYTCKCDPGFSGLKCEQIVNCTALESPEHGSLVCSHPLGNFSYNSSCSISCDRGYLPSSMETMQCMSSGEWSAPIPACNVVECDAVTNPANGFVECFQNPGSFPWNTTCTFDCEEGFELMGAQSLQCTSSGNWDNEKPTCKAVTCRAVRQPQNGSVRCSHSPAGEFTFKSSCNFTCEEGFMLQGPAQVECTTQGQWTQQIPVCEAFQCTALSNPERGYMNCLPSASGSFRYGSSCEFSCEQGFVLKGSKRLQCGPTGEWDNEKPTCEAVRCDAVHQPPKGLVRCAHSPIGEFTYKSSCAFSCEEGFELHGSTQLECTSQGQWTEEVPSCQVVKCSSLAVPGKINMSCSGEPVFGTVCKFACPEGWTLNGSAARTCGATGHWSGLLPTCEAPTESNIPLVAGLSAAGLSLLTLAPFLLWLRKCLRKAKKFVPASSCQSLESDGSYQKPSYIL
# Experiments:
# Assay in all cases: glycan array binding signal (z-score within array); higher = stronger binding
# Settings in all cases: glycan notation: IUPAC condensed, linker removed
# [1] = molecular target: Neu5Ac(a2-3)[Neu5Ac(a2-6)]GalNAc
# Method in brief: (§1)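 Columns mapping to the same glycan were averaged after glycan names were converted to IUPAC-condensed notation. The data come from 3228 arrays in the Consortium for Functional Glycomics database, limited to those with an available protein sequence. Binding is reported as a within-array Z-score averaged across arrays of one protein sequence and across linkers.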
# [2] = molecular target: Neu5Ac(a2-6)Gal
# Method in brief: as §1
# [3] = molecular target: Neu5Ac(a2-6)Gal(b1-4)Glc
# Method in brief: as §1
# [4] = molecular target: Neu5Ac(a2-6)Gal(b1-4)GlcNAc
# Method in brief: as §1
# [5] = molecular target: Neu5Ac(a2-6)Gal(b1-4)GlcNAc(b1-2)Man(a1-3)[Gal(b1-4)GlcNAc(b1-2)Man(a1-6)]Man(b1-4)GlcNAc(b1-4)GlcNAc
# Method in brief: as §1
# [6] = molecular target: Neu5Ac(a2-6)Gal(b1-4)GlcNAc(b1-2)Man(a1-3)[GlcNAc(b1-2)Man(a1-6)]Man(b1-4)GlcNAc(b1-4)GlcNAc
# Method in brief: as §1
# [7] = molecular target: Neu5Ac(a2-6)Gal(b1-4)GlcNAc(b1-2)Man(a1-3)[GlcNAc(b1-2)Man(b1-4)GlcNAc(b1-2)Man(a1-6)]Man(b1-4)GlcNAc(b1-4)GlcNAc
# Method in brief: as §1
# [8] = molecular target: Neu5Ac(a2-6)Gal(b1-4)GlcNAc(b1-2)Man(a1-3)[Neu5Ac(a2-6)Gal(b1-4)GlcNAc(b1-2)Man(a1-6)]Man(b1-4)GlcNAc(b1-4)GlcNAc
# Method in brief: as §1
# [9] = molecular target: Neu5Ac(a2-6)Gal(b1-4)GlcNAc(b1-2)Man(a1-6)[Gal(b1-4)GlcNAc(b1-2)Man(a1-3)]Man(b1-4)GlcNAc(b1-4)GlcNAc
# Method in brief: as §1
# [10] = molecular target: Neu5Ac(a2-6)Gal(b1-4)GlcNAc(b1-2)Man(a1-6)[GlcNAc(b1-2)Man(a1-3)]Man(b1-4)GlcNAc(b1-4)GlcNAc
# Method in brief: as §1
# [11] = molecular target: Neu5Ac(a2-6)Gal(b1-4)GlcNAc(b1-3)Gal(b1-4)GlcNAc
# Method in brief: as §1
# [12] = molecular target: Neu5Ac(a2-6)Gal(b1-4)GlcNAc(b1-3)Gal(b1-4)[Fuc(a1-3)]GlcNAc(b1-3)Gal(b1-4)[Fuc(a1-3)]GlcNAc
# Method in brief: as §1
# [13] = molecular target: Neu5Ac(a2-6)Gal(b1-4)GlcNAc6S
# Method in brief: as §1
# [14] = molecular target: Neu5Ac(a2-6)GalNAc
# Method in brief: as §1
# [15] = molecular target: Neu5Ac(a2-6)GalNAc(b1-4)GlcNAc
# Method in brief: as §1
# [16] = molecular target: Neu5Ac(a2-8)Neu5Ac
# Method in brief: as §1
# [17] = molecular target: Neu5Ac(a2-8)Neu5Ac(a2-3)Gal(b1-4)Glc
# Method in brief: as §1
# [18] = molecular target: Neu5Ac(a2-8)Neu5Ac(a2-3)[GalNAc(b1-4)]Gal(b1-4)Glc
# Method in brief: as §1
# [19] = molecular target: Neu5Ac(a2-8)Neu5Ac(a2-8)Neu5Ac
# Method in brief: as §1
# [20] = molecular target: Neu5Ac(a2-8)Neu5Ac(a2-8)Neu5Ac(a2-3)Gal(b1-4)Glc
# Method in brief: as §1
# [21] = molecular target: Neu5Ac(a2-8)Neu5Ac(a2-8)Neu5Ac(a2-3)[GalNAc(b1-4)]Gal(b1-4)Glc
# Method in brief: as §1
# [22] = molecular target: Neu5Ac(a2-8)Neu5Ac(a2-8)Neu5Ac(a2-8)Neu5Ac(a2-3)[GalNAc(b1-4)]Gal(b1-4)Glc
# Method in brief: as §1
# [23] = molecular target: Neu5Ac(b1-6)GalNAc
# Method in brief: as §1
# [24] = molecular target: Neu5Ac(b2-6)Gal(b1-4)GlcNAc
# Method in brief: as §1
# [25] = molecular target: Neu5Ac(b2-6)GalNAc
# Method in brief: as §1
# [26] = molecular target: Neu5Ac9Ac(a2-6)Gal(b1-4)GlcNAc
# Method in brief: as §1
# [27] = molecular target: Neu5Gc(a2-3)Gal(b1-3)GlcNAc
# Method in brief: as §1
# [28] = molecular target: Neu5Gc(a2-3)Gal(b1-3)[Fuc(a1-4)]GlcNAc
# Method in brief: as §1
# [29] = molecular target: Neu5Gc(a2-3)Gal(b1-4)Glc
# Method in brief: as §1
# [30] = molecular target: Neu5Gc(a2-3)Gal(b1-4)GlcNAc
# Method in brief: as §1
# [31] = molecular target: Neu5Gc(a2-3)Gal(b1-4)[Fuc(a1-3)]GlcNAc
# Method in brief: as §1
# [32] = molecular target: Neu5Gc(a2-6)Gal(b1-4)GlcNAc
# Method in brief: as §1
# [33] = molecular target: Neu5Gc(a2-6)GalNAc
# Method in brief: as §1
# [34] = molecular target: Neu5Gc(b2-6)Gal(b1-4)GlcNAc
# Method in brief: as §1
binder,measurement,setting,value
B1,glycan array binding signal (z-score),[1],-0.134
same,glycan array binding signal (z-score),[2],-0.129
same,glycan array binding signal (z-score),[3],-0.086
same,glycan array binding signal (z-score),[4],-0.166
same,glycan array binding signal (z-score),[5],-0.204
same,glycan array binding signal (z-score),[6],-0.145
same,glycan array binding signal (z-score),[7],-0.135
same,glycan array binding signal (z-score),[8],-0.149
same,glycan array binding signal (z-score),[9],-0.253
same,glycan array binding signal (z-score),[10],-0.282
same,glycan array binding signal (z-score),[11],-0.141
same,glycan array binding signal (z-score),[12],-0.077
same,glycan array binding signal (z-score),[13],0.107
same,glycan array binding signal (z-score),[14],-0.201
same,glycan array binding signal (z-score),[15],-0.117
same,glycan array binding signal (z-score),[16],0.062
same,glycan array binding signal (z-score),[17],-0.078
same,glycan array binding signal (z-score),[18],-0.1
same,glycan array binding signal (z-score),[19],-0.021
same,glycan array binding signal (z-score),[20],-0.175
same,glycan array binding signal (z-score),[21],-0.132
same,glycan array binding signal (z-score),[22],-0.09
same,glycan array binding signal (z-score),[23],-0.129
same,glycan array binding signal (z-score),[24],-0.251
same,glycan array binding signal (z-score),[25],-0.231
same,glycan array binding signal (z-score),[26],-0.181
same,glycan array binding signal (z-score),[27],-0.199
same,glycan array binding signal (z-score),[28],12.1
same,glycan array binding signal (z-score),[29],-0.023
same,glycan array binding signal (z-score),[30],-0.191
same,glycan array binding signal (z-score),[31],0.141
same,glycan array binding signal (z-score),[32],-0.223
same,glycan array binding signal (z-score),[33],-0.239
same,glycan array binding signal (z-score),[34],-0.187
